Measured values as given in a compilation of properties of binary mixtures (doi:10.1021/acs.jced.0c00426).
The densities may have been worked out from excess volumes.

Experiment: xn = mol fraction of the nth substance listed
Settings: 101.3 kPa

CCCCCCCCn1cc[n+](C)c1.F[B-](F)(F)F + CNc1ccccc1
mass density [kg/m3]
Settings | x1 = 0.1032 | x1 = 0.2037 | x1 = 0.285 | x1 = 0.383 | x1 = 0.4978 | x1 = 0.5939 | x1 = 0.7016 | x1 = 0.7942 | x1 = 0.9002 | x1 = 1
293.15 K | 1018.8 | 1039.8 | – | 1063.9 | 1074 | 1080.6 | – | 1092.1 | 1097.6 | 1108.5
298.15 K | – | 1036.2 | 1048.8 | 1060.4 | 1070.5 | 1077.3 | 1084 | 1088.8 | 1094.3 | 1105
303.15 K | 1011.2 | 1032.5 | 1045.2 | 1056.9 | 1067.1 | 1073.8 | 1080.7 | – | 1091 | 1101.7
308.15 K | 1007.4 | 1028.9 | 1041.6 | 1053.4 | – | – | – | 1082.3 | 1087.8 | –
313.15 K | 1003.7 | – | 1038 | 1049.9 | 1060.3 | – | 1074 | 1079 | 1084.4 | 1095
318.15 K | 1000.1 | 1021.3 | 1034.3 | – | 1057 | 1063.9 | 1070.6 | 1075.8 | 1081.1 | 1091.5
323.15 K | 996.4 | – | 1030.7 | 1042.7 | 1053.3 | 1060.7 | – | 1072.6 | 1077.8 | 1088

CCCCCC[n+]1ccn(C)c1.F[B-](F)(F)F + CNc1ccccc1
x1 = 1
Settings | mass density [kg/m3]
298.15 K | 1145.1
303.15 K | 1141.7
308.15 K | 1137.8
313.15 K | 1134.9
318.15 K | 1131.7
323.15 K | 1127.5

CCCC[n+]1ccn(C)c1.F[B-](F)(F)F + CNc1ccccc1
x1 = 1
Settings | mass density [kg/m3]
303.15 K | 1197.5
313.15 K | 1189.5
318.15 K | 1186.2
323.15 K | 1182.9
